# Measurements: the supplement of paper PMC8728848
# This is one part of the list.
# B1: SSR2 (Sclerotium rolfsii) (protein)
# chain: MVYKITVRVYQTNPDAFFHPVEKTVWKYANGGTWSITDDQHVLTMGGSGTSGTLRFHADNGESFTATFGVHNYKRWCDIVTNLAADETGMVINQQYYSQKNREEARERQLSNYQVKNAKGRNFQIVYTEAEGNDLHANLIIG
# Columns and labels:
# Assay in all cases: glycan array binding signal (z-score within array); higher = stronger binding
# Settings in all cases: glycan notation: IUPAC condensed, linker removed
# [1] = target: Gal(b1-4)GalNAc(b1-3)[Fuc(a1-2)]Gal(b1-4)GlcNAc
# Method in brief: (§1)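 The Consortium for Functional Glycomics database supplied 3228 glycan arrays, of which those lacking an available protein sequence were dropped. The binding signal, a within-array Z-score, was averaged across arrays of the same protein sequence and across linkers. Negative scores can be read as non-binding.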
# Gal(b1-4)Glc = target: Gal(b1-4)Glc
# Method in brief: as §1
# Gal(b1-4)Glc6S = target: Gal(b1-4)Glc6S
# Method in brief: as §1
# Gal(b1-4)GlcNAc = target: Gal(b1-4)GlcNAc
# Method in brief: as §1
# [2] = target: Gal(b1-4)GlcNAc(a1-6)Gal(b1-4)GlcNAc
# Method in brief: as §1
# Gal(b1-4)GlcNAc(b1-2)Man = target: Gal(b1-4)GlcNAc(b1-2)Man
# Method in brief: as §1
# [3] = target: Gal(b1-4)GlcNAc(b1-2)Man(a1-3)Man(b1-4)GlcNAc(b1-4)GlcNAc
# Method in brief: as §1
# [4] = target: Gal(b1-4)GlcNAc(b1-2)Man(a1-3)[Gal(b1-4)GlcNAc(b1-2)Man(a1-6)]Man(b1-4)GlcNAc(b1-4)GlcNAc
# Method in brief: as §1
# [5] = target: Gal(b1-4)GlcNAc(b1-2)Man(a1-3)[Gal(b1-4)GlcNAc(b1-2)Man(a1-6)]Man(b1-4)GlcNAc(b1-4)[Fuc(a1-6)]GlcNAc
# Method in brief: as §1
# [6] = target: Gal(b1-4)GlcNAc(b1-2)Man(a1-3)[Gal(b1-4)GlcNAc(b1-2)Man(a1-6)][Gal(b1-4)GlcNAc(b1-4)]Man(b1-4)GlcNAc(b1-4)[Fuc(a1-6)]GlcNAc
# Method in brief: as §1
# [7] = target: Gal(b1-4)GlcNAc(b1-2)Man(a1-3)[Gal(b1-4)GlcNAc(b1-2)Man(a1-6)][GlcNAc(b1-4)]Man(b1-4)GlcNAc(b1-4)[Fuc(a1-6)]GlcNAc
# Method in brief: as §1
# [8] = target: Gal(b1-4)GlcNAc(b1-2)Man(a1-3)[GlcNAc(b1-2)Man(a1-6)]Man(b1-4)GlcNAc(b1-4)GlcNAc
# Method in brief: as §1
# [9] = target: Gal(b1-4)GlcNAc(b1-2)Man(a1-3)[GlcNAc(b1-4)][Gal(b1-4)GlcNAc(b1-2)Man(a1-6)]Man(b1-4)GlcNAc(b1-4)GlcNAc
# Method in brief: as §1
# [10] = target: Gal(b1-4)GlcNAc(b1-2)Man(a1-3)[Man(a1-6)]Man(b1-4)GlcNAc(b1-4)GlcNAc
# Method in brief: as §1
# [11] = target: Gal(b1-4)GlcNAc(b1-2)Man(a1-6)Man(b1-4)GlcNAc(b1-4)GlcNAc
# Method in brief: as §1
# [12] = target: Gal(b1-4)GlcNAc(b1-2)Man(a1-6)[GlcNAc(b1-2)Man(a1-3)]Man(b1-4)GlcNAc(b1-4)GlcNAc
# Method in brief: as §1
# [13] = target: Gal(b1-4)GlcNAc(b1-2)Man(a1-6)[Man(a1-3)]Man(b1-4)GlcNAc(b1-4)GlcNAc
# Method in brief: as §1
# [14] = target: Gal(b1-4)GlcNAc(b1-2)[Gal(b1-4)GlcNAc(b1-4)]Man(a1-3)[Gal(b1-4)GlcNAc(b1-2)Man(a1-6)]Man(b1-4)GlcNAc(b1-4)GlcNAc
# Method in brief: as §1
# [15] = target: Gal(b1-4)GlcNAc(b1-2)[Gal(b1-4)GlcNAc(b1-4)]Man(a1-3)[Gal(b1-4)GlcNAc(b1-2)[Gal(b1-4)GlcNAc(b1-6)]Man(a1-6)]Man(b1-4)GlcNAc(b1-4)GlcNAc
# Method in brief: as §1
# [16] = target: Gal(b1-4)GlcNAc(b1-2)[Gal(b1-4)GlcNAc(b1-4)]Man(a1-3)[GlcNAc(b1-4)][Gal(b1-4)GlcNAc(b1-2)Man(a1-6)]Man(b1-4)GlcNAc(b1-4)GlcNAc
# Method in brief: as §1
# [17] = target: Gal(b1-4)GlcNAc(b1-2)[Gal(b1-4)GlcNAc(b1-4)]Man(a1-3)[GlcNAc(b1-4)][Gal(b1-4)GlcNAc(b1-2)[Gal(b1-4)GlcNAc(b1-6)]Man(a1-6)]Man(b1-4)GlcNAc(b1-4)GlcNAc
# Method in brief: as §1
# [18] = target: Gal(b1-4)GlcNAc(b1-2)[Gal(b1-4)GlcNAc(b1-6)]Man(a1-6)[Gal(b1-4)GlcNAc(b1-2)Man(a1-3)]Man(b1-4)GlcNAc(b1-4)GlcNAc
# Method in brief: as §1
binder,measurement,setting,value
B1,glycan array binding signal (z-score),[1],-0.299
same,glycan array binding signal (z-score),Gal(b1-4)Glc,-0.281
same,glycan array binding signal (z-score),Gal(b1-4)Glc6S,-0.277
same,glycan array binding signal (z-score),Gal(b1-4)GlcNAc,-0.292
same,glycan array binding signal (z-score),[2],-0.299
same,glycan array binding signal (z-score),Gal(b1-4)GlcNAc(b1-2)Man,-0.265
same,glycan array binding signal (z-score),[3],-0.281
same,glycan array binding signal (z-score),[4],-0.273
same,glycan array binding signal (z-score),[5],-0.282
same,glycan array binding signal (z-score),[6],-0.279
same,glycan array binding signal (z-score),[7],-0.287
same,glycan array binding signal (z-score),[8],2.17
same,glycan array binding signal (z-score),[9],-0.259
same,glycan array binding signal (z-score),[10],-0.262
same,glycan array binding signal (z-score),[11],-0.275
same,glycan array binding signal (z-score),[12],3.34
same,glycan array binding signal (z-score),[13],-0.278
same,glycan array binding signal (z-score),[14],-0.285
same,glycan array binding signal (z-score),[15],-0.291
same,glycan array binding signal (z-score),[16],-0.286
same,glycan array binding signal (z-score),[17],-0.287
same,glycan array binding signal (z-score),[18],-0.279
